For 14 molecules, binding signal results are on record in paper PMC12136788.

B1: chr7:75956504:75956505:-_ENSG00000170027_ENST00000307630|hu_hu|motif|central (ssRNA)
RNA: GGGAGUUCUACAGUCCGACGAUCAUAUAACUGCAUGUCACUAUAGCAACAUCCAAAACAGAUCAAUUUGUUACAAUCACGGUUUGGUAGAGCAAACUUUACCCCCAAAAGGAAAAAUUAAAUUAAAAAAAAAAAACCUUUAAACAACAGAGGAUUGAGCAUCA
B2: chr14:76904430:76904431:+_ENSMUSG00000022010_ENSMUST00000022587|mus_mus|mus_mus_mus_hu_True|18_88 (ssRNA)
RNA: GGGAGUUCUACAGUCCGACGAUCUGCAGCCAAAAACACCCUCGUGGCGGGAGGGAGGGAACACCAGCAGCCUUGUAUAAGCUAGAUAAAAUCUUCUGGCUUUCCGCAGCCCAGGGAGUGAGAACGGACGGCAGCCCUAAUUUACAACAGAGGAUUGAGCAUCA
B3: chr2:42509997:42509998:+_ENSG00000143924_ENST00000318522|hu_mus|hu_hu_hu_mus_True|88_88 (ssRNA)
RNA: GGGAGUUCUACAGUCCGACGAUCUCGCUGAGUCCUCUCCUCAUAAUUAAAUAGUACUACCACUGAGGCGAUAAAAUAAACUAUCUCCCCUGUGGGAAGCAGGUAUACAUUCGCUCUACAGUCCUUUCCUCGAUAACCGUAUACCAACAGAGGAUUGAGCAUCA
B4: 91712627_91712747_8597_CDS_ENSG00000127914_ENST00000356239|human|control|control (ssRNA)
RNA: GGGAGUUCUACAGUCCGACGAUCUAAAUUAAUUUGUAUUCCUGCAUUUUUAACAAGAAUUUGUGGAGUCUGAUUGCUGCUACUGAUCUUCAGAGUCCCAUCUGUCUGGGAUGCAAUGCUCUUACUCAGUUUUAUAGGAAGUGGCAACAGAGGAUUGAGCAUCA
B5: chr14:103803487:103803488:+_ENSG00000100664_ENST00000558506|hu_hu|motif|central (ssRNA)
RNA: GGGAGUUCUACAGUCCGACGAUCGAGUUUAUGAUGUGUGUCAAGCAUGCCUCGAUAGCCACAGGCUUUACAAGAAUUACCGGUUGUUUGCUUCUUUGGAUUGACAUGCAAAUCUGUUUCAGGAUUCUCACAUUCAGGACAGAGCAACAGAGGAUUGAGCAUCA
B6: chr15:98781125:98781126:-_ENSMUSG00000072235_ENSMUST00000097014|mus_mus|FALSE|FALSE (ssRNA)
RNA: GGGAGUUCUACAGUCCGACGAUCAACAUUCAGGGCCCCAUCAAAUCUGAGGGAAGCAGUGAUGGAAGACACAAUUUGACCUAUCAACCUGUUUAGGUUAGUGUAGGUUGGGCGCUCAAUGUCGAGGUUUCUACGACAGAUAUCCAACAGAGGAUUGAGCAUCA
B7: chr5:37680062:37680063:+_ENSMUSG00000029121_ENSMUST00000031004|mus_hu|mus_mus_mus_hu_False|38_38 (ssRNA)
RNA: GGGAGUUCUACAGUCCGACGAUCUUUGGGUGUAGCUGGUACCUCGUACACAGGACCGUCAUACAUGCCCCUGGAAACCCCUUGCAAUCCAAAAACCUUGCUUCUGAUUUUGACGCGCUGGUACAGGUGCUCCGGGAACGCCUUCAACAGAGGAUUGAGCAUCA
B8: chr1:109605286:109605287:-_ENSG00000197780_ENST00000461096|hu_mus|hu_hu_hu_mus_True|8_68 (ssRNA)
RNA: GGGAGUUCUACAGUCCGACGAUCAAGUUUCAGAGUAACAUUCAGUAACCUCUUUAAAUGCAAUUAUCCUUACUUUAAGCUAAGCAGAAUAAUAAUUUAAUACCGUAAGUGAACUACACACAAAGCCGUGUAUUCAGAAAUGGUCAACAGAGGAUUGAGCAUCA
B9: 44559305_44559425_1238_CDS_ENSMUSG00000032096_ENSMUST00000034607|mouse|control|control (ssRNA)
RNA: GGGAGUUCUACAGUCCGACGAUCCGGAAUAAAAGAUUCCUCUGUUGUUUGUAGUCUCCACUUUAGUACCCCUACAUCACUGUUGACUGGAAAUGACUUCUCUGGGUUUUUCAAGCCAAUGAGAGACUCUGCAGUAAAAAGUUUCAACAGAGGAUUGAGCAUCA
B10: chr9:21819513:21819514:-_ENSMUSG00000003410_ENSMUST00000003501|mus_mus|FALSE|FALSE (ssRNA)
RNA: GGGAGUUCUACAGUCCGACGAUCUGAACUUUUUAUUUUCUGGCAUGAAAAGUACAAAUAGUUAAAGAAUCCCAUGUAAAAGUCAGUUACCGCGGCCAGGCCUGGGGCUCGGUAAGAAAUGUCUAACGCAACUUGAAGUGUUCUCAACAGAGGAUUGAGCAUCA
B11: chr6:86333760:86333761:-_ENSG00000135316_ENST00000355238|hu_mus|hu_hu_hu_mus_True|78_78 (ssRNA)
RNA: GGGAGUUCUACAGUCCGACGAUCUUCCUCAAGAAUCUGCUCCUUGGUUUUACUCUUAGGAAUAGAGCCCACAAAAAGCCUAUUGUUGGCAACUGAGAUGCAGACACCAAUGUGCUUCCCGGAACGAAUUUCAUGAUUAUUAUACAACAGAGGAUUGAGCAUCA
B12: chr5:32599118:32599119:+_ENSG00000113387_ENST00000502897|hu_hu|motif|central (ssRNA)
RNA: GGGAGUUCUACAGUCCGACGAUCAGAAAUACCUUUUCUUCCUGGUUUCAUUUCACCUUCAGGAUCCAUCCAAUAUUCUCGGAUAUCAAUUAGCACUUUGCCUUUAAAAUCGCGAACACUAACGUACCUCAUUUUCCCAAUCUGCAACAGAGGAUUGAGCAUCA
B13: chr2:42509997:42509998:+_ENSG00000143924_ENST00000318522|hu_mus|hu_hu_hu_mus_True|48_108 (ssRNA)
RNA: B3 RNA with C33U, U51C, U54G, U90G, G93C
B14: chr1:60041781:60041782:+_ENSMUSG00000041040_ENSMUST00000036540|mus_hu|mus_mus_mus_hu_False|88_88 (ssRNA)
RNA: GGGAGUUCUACAGUCCGACGAUCAAGUUUACAAUAGUAAAGUAAAUCAAAUUUAGUCAAAUUUUCUUUUAUUUUCCUUCACAAAAGAAAAUCUUUAUAACCCAGUCCUAGUCUUGGACAUAGUGAAAGCUAUAAAUUCUGACUCAACAGAGGAUUGAGCAUCA

Positions count from the first letter of the chain named. Some of the results follow.

This experiment has as its target T1, UNK ZnF1-3 (human, UniProt Q9C0B0 31-174).
T1 sequence: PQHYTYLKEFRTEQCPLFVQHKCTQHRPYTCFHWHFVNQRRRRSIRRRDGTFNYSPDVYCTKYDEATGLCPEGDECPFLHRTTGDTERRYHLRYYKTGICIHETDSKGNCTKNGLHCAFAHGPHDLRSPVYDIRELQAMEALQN
Briefly: nsRBNS (natural sequence RNA bind-n-seq); RBNS binding buffer (assumed for nsRBNS): 25 mM Tris pH 7.5, 150 mM KCl, 3 mM MgCl2, 0.01% Triton X-100, 500 ug/ml BSA, 20 U/ml SUPERase-In, 4 C; UNK is unkempt and MSI1 is Musashi-1; names of the RNAs are library labels; protein concentration not given here; high values mean tight binding.
Molecule B1 gave a binding signal of 3.1 enrichment R.

B2: the binding signal stood at 1.79 enrichment R.

As to B3, the binding signal amounted to 1.73 enrichment R.

Regarding B4, the binding signal was determined as 0.938 enrichment R.

As to B5, the binding signal was 1.48 enrichment R.

Molecule B6 returned a binding signal of 1.13 enrichment R.

B7 yielded a binding signal of 0.716 enrichment R.

In the case of B8, the binding signal amounted to 0.462 enrichment R.

As to B9, the binding signal is 0.922 enrichment R.

In the case of B10, the binding signal is 0.928 enrichment R.

B11 had a binding signal of 1.14 enrichment R.

On to B12, for which the binding signal turned out to be 0.699 enrichment R.

As to B13, the binding signal is 1.13 enrichment R.

For the molecule B14, the binding signal was determined as 0.563 enrichment R.
